Results: PubChem BioAssay AID488969 (Vanderbilt High Throughput Screening Facility, 2010)
Whole data set: some 110,000 compounds, median “z-score” near -0.1, cut for the highest 2% near 2. This is one part of the list. Residues, ends and D or L forms follow the SMILES beside them. *: point of attachment. Boc = CC(C)(C)OC(=O)*

target: Metabotropic glutamate receptor 8 (Rattus norvegicus) (UniProt P70579); experiment: mGluR8 Gi/Go-coupled signaling modulation – cell-based, rat, thallium flux, HTS, primary screen (AID 488969); settings: HEK293 rat mGluR8, GIRK (G protein-gated inwardly rectifying potassium channel) thallium flux, FluoZin2; at 10 µM; stronger effect = higher value; submaximal glutamate (EC20) added with thallium
Chain of UniProt P70579 (P70579 whole entry, looked up): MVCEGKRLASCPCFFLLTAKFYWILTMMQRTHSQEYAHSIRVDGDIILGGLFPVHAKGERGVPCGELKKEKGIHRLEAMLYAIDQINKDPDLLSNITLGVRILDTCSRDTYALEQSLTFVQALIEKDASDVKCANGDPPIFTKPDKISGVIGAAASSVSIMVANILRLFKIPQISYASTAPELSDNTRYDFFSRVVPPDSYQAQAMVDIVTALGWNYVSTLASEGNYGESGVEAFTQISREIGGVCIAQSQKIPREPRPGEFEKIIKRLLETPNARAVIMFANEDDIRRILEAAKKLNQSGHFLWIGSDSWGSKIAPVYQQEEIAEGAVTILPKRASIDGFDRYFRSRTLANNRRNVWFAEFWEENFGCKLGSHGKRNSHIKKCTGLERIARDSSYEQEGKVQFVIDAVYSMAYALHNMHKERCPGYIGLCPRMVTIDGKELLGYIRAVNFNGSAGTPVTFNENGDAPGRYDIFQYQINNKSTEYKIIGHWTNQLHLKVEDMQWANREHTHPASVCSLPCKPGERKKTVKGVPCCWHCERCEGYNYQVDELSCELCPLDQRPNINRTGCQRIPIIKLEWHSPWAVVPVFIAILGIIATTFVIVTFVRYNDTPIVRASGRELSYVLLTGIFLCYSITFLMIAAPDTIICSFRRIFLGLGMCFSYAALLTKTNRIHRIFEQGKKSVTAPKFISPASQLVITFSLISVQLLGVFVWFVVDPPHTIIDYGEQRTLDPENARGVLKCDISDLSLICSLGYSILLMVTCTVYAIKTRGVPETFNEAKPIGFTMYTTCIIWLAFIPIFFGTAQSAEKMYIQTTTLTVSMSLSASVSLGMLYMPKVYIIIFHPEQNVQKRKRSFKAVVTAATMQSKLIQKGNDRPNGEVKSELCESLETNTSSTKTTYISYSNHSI

Q: For `O=C(Nc1cc(SCCO)cc([N+](=O)[O-])c1)c1ccco1`, which z-score is on record?
A: The z-score was -0.182.

Q: With `CN(C)S(=O)(=O)c1ccc(NC(=O)COC(=O)c2n[nH]c3ccccc23)cc1` as the compound, how does the z-score read?
A: The z-score was 0.415.

Q: `COCCNC(=O)C(C)N(c1ccc(Oc2ccccc2)cc1)S(C)(=O)=O` (stereo not drawn) was tested. Which z-score did it give?
A: The z-score was -0.016.

Q: With `Cc1ccc2nc(Cc3ccc(N)cc3)oc2c1` as the compound, how does the z-score read?
A: The z-score was -0.338.

Q: How did the z-score turn out when `Cc1ccc(-c2nnn(CC(=O)N(Cc3ccccc3)C(C(=O)NC(C)(C)C)c3ccncc3)n2)o1` (stereo not drawn) was run?
A: The z-score was -0.495.

Q: How did the z-score turn out when `O=C(CSc1nc(-c2ccccc2)c(-c2ccccc2)o1)Nc1nncs1` was run?
A: The z-score was -0.201.

Q: With `Cc1nc2ccccc2c(=O)n1/N=C/c1ccc(N(C)C)cc1` as the compound, how does the z-score read?
A: The z-score was -0.544.

Q: Which z-score does the source give for `COC(=O)c1c(C)cc(OC(C)=O)c(C)c1OC(C)=O` here?
A: The z-score was 0.576.

Q: With `COc1ccc(C(CC(=O)NCc2ccccc2)Sc2n[nH]c(-c3ccccc3)n2)cc1` (stereo not drawn) as the compound, how does the z-score read?
A: The z-score was -0.187.

Q: For `Cc1nn(-c2ccccc2)c(Cl)c1/C=N/Nc1nc2ccccc2[nH]1`, which z-score is on record?
A: Its z-score is -0.0698.

Q: Which z-score does the source give for `CCc1ccccc1NC(=O)c1cc(C2CC2)on1` here?
A: Its z-score is -0.652.

Q: `Cc1ccc2cc(C3C(C#N)=C(N)Oc4c3ccc3cccnc43)c(=O)[nH]c2c1` (stereo not drawn) was tested. Which z-score did it give?
A: Its z-score is -0.345.

Q: How did the z-score turn out when `COc1cccc(NC(=O)CC2S/C(=N\S(=O)(=O)c3ccccc3)N(c3ccccc3)C2=O)c1` (stereo not drawn) was run?
A: Its z-score is -0.34.

Q: For `COc1cccc(NS(=O)(=O)c2ccc3[nH]cc(C(=O)NC4CC4)c(=O)c3c2)c1`, which z-score is on record?
A: Its z-score is -0.131.

Q: For `c1coc(CNC2C3CC4CC(C3)CC2C4)c1` (stereo not drawn), which z-score is on record?
A: Its z-score is 0.183.

Q: Which z-score does the source give for `COc1ccc(NC(=O)c2cccc(F)c2)cc1Cl` here?
A: Its z-score is -0.393.

Q: `c1cnc(SCCOc2cccc3ccccc23)nc1` was tested. Which z-score did it give?
A: Its z-score is 0.0807.

Q: `NC(=O)c1ccsc1NC(=O)CSc1nnc(C2CC2)n1Cc1ccccc1` was tested. Which z-score did it give?
A: Its z-score is -0.337.

Q: `C=CCNc1nc(NCC)nc(N2CCOCC2)n1` was tested. Which z-score did it give?
A: The z-score was 0.853.

Q: `CCCNc1nc(Nc2ccc(C)cc2)nc(N2CCCC2)n1` was tested. Which z-score did it give?
A: Its z-score is -0.473.

Q: For `COc1ccc(C(=O)NCc2ccc(-c3nc4ccccc4s3)cc2)cc1`, which z-score is on record?
A: Its z-score is -0.135.

Q: `OC(Cn1cncn1)(c1ccccc1)c1ccccc1` was tested. Which z-score did it give?
A: Its z-score is -0.0537.

Q: With `COc1ccc(C(=O)Nc2ccc(S(=O)(=O)N3CCCC3)cc2)c(OC)c1` as the compound, how does the z-score read?
A: The z-score was -0.158.

Q: `C=C(C)CSc1nnc(-c2cccc(Cl)c2)n1N` was tested. Which z-score did it give?
A: The z-score was -0.354.

Q: How did the z-score turn out when `Cc1noc(C)c1CSc1nnc2ccc3ccccc3n12` was run?
A: The z-score was 0.171.

Q: How did the z-score turn out when `Cc1ccnc(NS(=O)(=O)c2ccc(N=CC3=C(O)CC(C)(C)CC3=O)cc2)n1` was run?
A: Its z-score is -0.367.

Q: `CC(NC(=O)Nc1ccccc1)C(c1ccccc1)N1CCOCC1` (stereo not drawn) was tested. Which z-score did it give?
A: Its z-score is -0.595.

Q: How did the z-score turn out when `CC(C)Cc1nnc(NS(=O)(=O)Cc2ccccc2)s1` was run?
A: The z-score was -0.297.

Q: With `COCCCNC(=O)CC(NS(=O)(=O)c1ccc(C)cc1)c1ccco1` (stereo not drawn) as the compound, how does the z-score read?
A: The z-score was 0.38.

Q: For `Oc1ccc(/C=N/NC(=S)NCc2ccco2)cc1`, which z-score is on record?
A: The z-score was 0.806.

Q: For `CCN(CC)CCNC(=O)c1ccc(NC2=NC3CS(=O)(=O)CC3S2)cc1` (stereo not drawn), which z-score is on record?
A: Its z-score is 0.618.

Q: With `COc1ccccc1N1CCN(C2CCN(C(=O)COc3cccc(C)c3)CC2)CC1` as the compound, how does the z-score read?
A: Its z-score is -0.105.

Q: `O=C(Nc1ccc(-c2nc3ccccc3s2)c(OC(=O)c2ccccc2)c1)c1ccccc1` was tested. Which z-score did it give?
A: The z-score was -0.23.

Q: For `O=[N+]([O-])c1ccccc1S(=O)(=O)n1nnc2ccccc21`, which z-score is on record?
A: The z-score was 0.18.

Q: Which z-score does the source give for `Cc1ccc(N2CC(C(=O)Nc3ccc(S(=O)(=O)N4CCOCC4)cc3)CC2=O)cc1` (stereo not drawn) here?
A: The z-score was 0.556.

Q: For `COc1ccc([N+](=O)[O-])cc1N(CC(O)CN(CC(C)C)CC(C)C)S(=O)(=O)c1ccccc1` (stereo not drawn), which z-score is on record?
A: The z-score was -0.186.

Q: With `CC(C)Oc1ccc(Cn2c(=O)sc3ccccc32)cc1` as the compound, how does the z-score read?
A: Its z-score is 0.0408.

Q: For `CCC(C)C(NC(=O)OC(C)(C)C)C(=O)NC(C(=O)N1CCCC1C(N)=O)C(C)CC` (stereo not drawn) (Boc-Ile-Ile-Pro-NH2; configuration not given here), which z-score is on record?
A: The z-score was 0.174.

Q: `Cn1c(=O)c([N+](=O)[O-])c(NCCc2ccccc2)c2ccccc21` was tested. Which z-score did it give?
A: Its z-score is 0.381.

Q: With `O=C(NO)c1cc(OCC(F)(F)F)ccc1OCC(F)(F)F` as the compound, how does the z-score read?
A: The z-score was -0.161.

Q: Which z-score does the source give for `CCOc1ccccc1C(=O)Nn1c(C2CCC2)nc2ccccc2c1=O` here?
A: The z-score was -0.734.

Q: With `O=C(O)CC1(Cc2nc(-c3cccs3)no2)CCCC1` as the compound, how does the z-score read?
A: Its z-score is -1.18.

Q: `Cc1cccc(CC(=O)OCn2nnc3ccccc3c2=O)c1` was tested. Which z-score did it give?
A: The z-score was -1.17.

Q: For `Cc1ccc(C(=O)CN(Cc2ccccc2)C2=NCCS2)cc1`, which z-score is on record?
A: Its z-score is 0.177.

Q: With `COc1ccc(/C=N/NC(=O)CO/N=C(\C)c2cccs2)cc1` as the compound, how does the z-score read?
A: Its z-score is 0.0451.

Q: For `C/C(=N\NC(=O)c1ccc(CN2CCOCC2)cc1)c1ccc([N+](=O)[O-])cc1`, which z-score is on record?
A: The z-score was -1.25.

Q: `Cc1ccc(CNC(=O)CSc2nnnn2C)cc1` was tested. Which z-score did it give?
A: Its z-score is -0.128.

Q: Which z-score does the source give for `COc1nc(C)nc(NC(=O)NS(=O)(=O)c2ccc(C)cc2)n1` here?
A: Its z-score is 1.06.

Q: How did the z-score turn out when `CSCCC(NC(=O)COc1ccccc1)C(=O)OCC(=O)c1cc2ccccc2o1` (stereo not drawn) was run?
A: The z-score was -0.092.

Q: `COC(=O)c1ccccc1NS(=O)(=O)c1cn(C)c(=O)n(C)c1=O` was tested. Which z-score did it give?
A: Its z-score is -0.262.

Q: Which z-score does the source give for `CC(C)Oc1cccc(C(=O)Nc2ccc(NC(=O)c3ccco3)cc2)c1` here?
A: Its z-score is 0.325.

Q: For `O=C(N/N=C/c1cccc(Oc2ccc([N+](=O)[O-])cc2[N+](=O)[O-])c1)c1cncc(Br)c1`, which z-score is on record?
A: Its z-score is -0.266.

Q: Which z-score does the source give for `CCOC(=O)c1cn(-c2nc(-c3ccc(Cl)c(Cl)c3)cs2)c2c(F)c(N3CCOCC3)c(F)cc2c1=O` here?
A: Its z-score is -0.188.

Q: `O=C(Nc1ccccc1Sc1ccccc1)C1CCCO1` (stereo not drawn) was tested. Which z-score did it give?
A: Its z-score is -0.775.

Q: How did the z-score turn out when `Cn1c(=O)c2c(-c3ccc(C(C)(C)C)cc3)n(N3CCOCC3)cc2n(C)c1=O` was run?
A: Its z-score is -0.0582.

Q: With `CSc1ccc(/C=C(/NC(=O)c2ccc(C)cc2)C(=O)Nc2cccc(C)c2)cc1` as the compound, how does the z-score read?
A: Its z-score is -0.0464.

Q: With `N#CCCN1CCN(C(CNS(=O)(=O)c2ccc(Cl)cc2)c2ccccc2)CC1` (stereo not drawn) as the compound, how does the z-score read?
A: Its z-score is -0.0968.

Q: For `O=C(CN1CCN(Cc2ccc(Cl)cc2)C1=O)NCCCN1CCN(c2ccc(F)cc2)CC1`, which z-score is on record?
A: Its z-score is -0.0961.

Q: Which z-score does the source give for `C=CCNC(=O)C12CC3CC(C1)CC(C(=O)NCC=C)(C3)C2` here?
A: Its z-score is -0.432.

Q: Which z-score does the source give for `CCn1c(C)nc2cc(C(=O)NNC(=O)CCC3CCCC3)ccc21` here?
A: The z-score was -0.0689.

Q: `COc1cc(NC(=S)Nc2ccccn2)cc(OC)c1` was tested. Which z-score did it give?
A: The z-score was -0.278.

Q: Which z-score does the source give for `CCOC(=O)Cc1csc(SCC(=O)Nc2cccc(Cl)c2)n1` here?
A: Its z-score is 0.368.

Q: How did the z-score turn out when `Cc1cc(C)n(C(=O)CNC(=O)CCc2ccccc2)n1` was run?
A: Its z-score is -0.136.

Q: Which z-score does the source give for `CCC(=O)N(CCC(c1ccco1)c1ccccc1OC)Cc1cccs1` (stereo not drawn) here?
A: The z-score was -0.395.

Q: `Cc1cnc(C)c(N2CCC(C(=O)NC(C)c3cccs3)CC2)n1` (stereo not drawn) was tested. Which z-score did it give?
A: The z-score was 0.307.

Q: For `CC1(C)NC(=O)N(CCSc2ccc(Cl)cc2)C1=O`, which z-score is on record?
A: The z-score was -0.257.

Q: `CCCOC(=O)/C=C/c1c(C)[nH]c(=O)[nH]c1=O` was tested. Which z-score did it give?
A: Its z-score is -1.15.

Q: Which z-score does the source give for `O=C(Cn1nc(CNc2ccc(Cl)cc2)[n+]2c1CCCCC2)c1ccc(Br)cc1` here?
A: The z-score was 0.0544.
